Test results reported in publication PMC8858996 (iScience, 2022).

Molecular target: the molecule itself
Experiment: FRET or BRET

Row | Protein | stoichiometry N
1 | EphA2 WT tagged at the C-terminus with mTURQ or EYFP (receptor) [about 500 residues not spelt out]IGGVAVGVVLLLVLAGVGFFIHRRRKNQRARQSPEDVYFSKSEQLKPLKTYVDPHTYEDPNQAVLKFTTEIHPSCVTRQKVIGAGEFGEVYKGMLKTSSGKKEVPVAIKTLKAGYTEKQRVDFLGEAGIMGQFSHHNIIRLEGVISKYKPMMIITEYMENGALDKFLREKDGEFSVLQLVGMLRGIAAGMKYLANMNYVHRDLAARNILVNSNLVCKVSDFGLSRVLEDDPEATYTTSGGKIPIRWTAPEAISYRKFTSASDVWSFGIVMWEVMTYGERPYWELSNHEVMKAINDGFRLPTPMDCPSAIYQLMMQCWQQERARRPKFADIVSILDKLIRAPDSLKTLADFDPRVSIRLPSTSGSEGVPFRTVSEWLESIKMQQYTEHFMAAGYTAIEKVVQMTNDDIKRIGVRLPGHQKRIAYSLLGLKDQVNTVGIPI | > 2
2 | EphA2 G131Y tagged at the C-terminus with mTURQ or EYFP (receptor) [about 500 residues with changes not spelt out]IGGVAVGVVLLLVLAGVGFFIHRRRKNQRARQSPEDVYFSKSEQLKPLKTYVDPHTYEDPNQAVLKFTTEIHPSCVTRQKVIGAGEFGEVYKGMLKTSSGKKEVPVAIKTLKAGYTEKQRVDFLGEAGIMGQFSHHNIIRLEGVISKYKPMMIITEYMENGALDKFLREKDGEFSVLQLVGMLRGIAAGMKYLANMNYVHRDLAARNILVNSNLVCKVSDFGLSRVLEDDPEATYTTSGGKIPIRWTAPEAISYRKFTSASDVWSFGIVMWEVMTYGERPYWELSNHEVMKAINDGFRLPTPMDCPSAIYQLMMQCWQQERARRPKFADIVSILDKLIRAPDSLKTLADFDPRVSIRLPSTSGSEGVPFRTVSEWLESIKMQQYTEHFMAAGYTAIEKVVQMTNDDIKRIGVRLPGHQKRIAYSLLGLKDQVNTVGIPI | 2
